Data as given in the supplement of paper PMC4604168 (melanoma cell lines).
This is one part of the list. Many values rest on one well or one pass, so single values are uncertain.

How the values were obtained:
Experiment in all cases: cell count relative to DMSO control; melanoma cells; higher = more viable cells
Conditions in all cases: library dose: low library concentration; 72 h
MZ2-MEL = test system: MZ2-MEL
MeWo = test system: MeWo
RPMI7951 = test system: RPMI7951
RVH-421 = test system: RVH-421
SkMel28 = test system: SkMel28
SkMel2 = test system: SkMel2
SkMel30 = test system: SkMel30
SkMel5 = test system: SkMel5
UACC257 = test system: UACC257
UACC62 = test system: UACC62
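Further: cell number obtained by counting DAPI-stained nuclei in high-throughput microscope images with image analysis software, screen run in 1,536-well plates.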

| SMILES | cell count (MZ2-MEL) [%] | cell count (MeWo) [%] | cell count (RPMI7951) [%] | cell count (RVH-421) [%] | cell count (SkMel28) [%] | cell count (SkMel2) [%] | cell count (SkMel30) [%] | cell count (SkMel5) [%] | cell count (UACC257) [%] | cell count (UACC62) [%] |
| --- | --- | --- | --- | --- | --- | --- | --- | --- | --- | --- |
| Cn1c(=O)n(-c2ccc(C(C)(C)C#N)cc2)c2c3cc(-c4cnc5ccccc5c4)ccc3ncc21 + COc1cc2ncnc(Nc3ccc(Oc4ccccc4)cc3)c2cc1OC [SrcI1] (first compound 0.004 µM, partner dose 2 µM) | 94 | 72.8 | 76.8 | 151 | 78.2 | 91.9 | 60.6 | 114 | 92.9 | 90.7 |
| Cc1cn(-c2cc(NC(=O)c3ccc(C)c(Nc4nccc(-c5cccnc5)n4)c3)cc(C(F)(F)F)c2)cn1 [nilotinib] + COc1cc2ncnc(Nc3ccc(Oc4ccccc4)cc3)c2cc1OC [SrcI1] (first compound 0.2 µM, partner dose 2 µM) | 90.9 | 100 | 102 | 103 | 105 | 107 | 94.4 | 110 | 95.1 | 98.8 |
| Cc1cc(Nc2cc(N3CCN(C)CC3)nc(/C=C/c3ccccc3)n2)n[nH]1 + C=CCn1c(=O)c2cnc(Nc3ccc(N4CCN(C)CC4)cc3)nc2n1-c1cccc(C(C)(C)O)n1 [MK1775] (first compound 0.04 µM, partner dose 0.02 µM) | 102 | 94.7 | 93.4 | 103 | 74.9 | 86 | 83.6 | 97.9 | 75.4 | 67.8 |
| COc1ccc(C2=N[C@@H](c3ccc(Cl)cc3)[C@@H](c3ccc(Cl)cc3)N2C(=O)N2CCNC(=O)C2)c(OC(C)C)c1 [Nutlin-3] + NC(=O)Nc1cc(-c2cccc(F)c2)sc1C(=O)N[C@H]1CCCNC1 [AZD7762] (first compound 0.1 µM, partner dose 0.02 µM) | 101 | 90.8 | 98.6 | 104 | 95.8 | 118 | 84.7 | 89.2 | 86.7 | 96.4 |
| CC(C)C[C@H](NC(=O)[C@H](Cc1ccccc1)NC(=O)c1cnccn1)B(O)O [Bortezomib] + O=C(CCCCCCC(=O)Nc1ccccc1)NO [vorinostat] (first compound 0.001 µM, partner dose 0.08 µM) | 97.8 | 90.5 | 95 | 72 | 82.4 | 95.6 | 92.8 | 98.7 | 68.8 | 87.6 |
| Cc1cc(Nc2cc(N3CCN(C)CC3)nc(/C=C/c3ccccc3)n2)n[nH]1 + O=S(=O)(c1ccccc1)N(CC(F)(F)F)c1ccc(C(O)(C(F)(F)F)C(F)(F)F)cc1 [T0901317] (first compound 0.04 µM, partner dose 1.4 µM) | 97.2 | 88.9 | 113 | 127 | 85.2 | 103 | 77.6 | 91.1 | 77.8 | 81.9 |
| CC(C)C[C@H](NC(=O)[C@H](Cc1ccccc1)NC(=O)c1cnccn1)B(O)O [Bortezomib] + CCCCCCCCCCCC1=C(O)C(=O)C=C(O)C1=O [Embelin] (first compound 0.001 µM, partner dose 1.2 µM) | 97.7 | 99.3 | 100 | 122 | 127 | 97.7 | 106 | 96.5 | 137 | 101 |
| Cc1cn(-c2cc(NC(=O)c3ccc(C)c(Nc4nccc(-c5cccnc5)n4)c3)cc(C(F)(F)F)c2)cn1 [nilotinib] + CCN(CC)CCCCNc1ncc2cc(-c3cc(OC)cc(OC)c3)c(NC(=O)NC(C)(C)C)nc2n1 [PD173074] (first compound 0.2 µM, partner dose 0.1 µM) | 105 | 99.1 | 98 | 99.1 | 88.7 | 99.5 | 101 | 98.2 | 96.2 | 104 |
| CC(C)C[C@H](NC(=O)[C@H](Cc1ccccc1)NC(=O)c1cnccn1)B(O)O [Bortezomib] + O=C(Nc1cccc(Cl)c1)Nc1ncc(CCNc2ncnc3ccsc23)s1 [SNS314] (first compound 0.001 µM, partner dose 0.0008 µM) | 89 | 93.8 | 81.5 | 58.4 | 92 | 110 | 84.3 | 96.3 | 66.6 | 73.9 |
